# Results as given in PMC4336329 (PLoS ONE, 2015).
# Hit rate of the full screen: of about 310,000 compounds, about 14,000 (4.5%) showed an effect of 50% or more. Effects have a minus sign here. Some of the results follow.
# Biological target: human ether-à-go-go-related gene (hERG) potassium channel (human, UniProt Q12809)
# Assay: primary screen, population patch clamp on CHO cells stably expressing hERG
# 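Also: peak tail current of the secondary pulse compared with the same well before compound.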
# Chain of human ether-à-go-go-related gene (hERG) potassium channel (Q12809 whole entry, looked up): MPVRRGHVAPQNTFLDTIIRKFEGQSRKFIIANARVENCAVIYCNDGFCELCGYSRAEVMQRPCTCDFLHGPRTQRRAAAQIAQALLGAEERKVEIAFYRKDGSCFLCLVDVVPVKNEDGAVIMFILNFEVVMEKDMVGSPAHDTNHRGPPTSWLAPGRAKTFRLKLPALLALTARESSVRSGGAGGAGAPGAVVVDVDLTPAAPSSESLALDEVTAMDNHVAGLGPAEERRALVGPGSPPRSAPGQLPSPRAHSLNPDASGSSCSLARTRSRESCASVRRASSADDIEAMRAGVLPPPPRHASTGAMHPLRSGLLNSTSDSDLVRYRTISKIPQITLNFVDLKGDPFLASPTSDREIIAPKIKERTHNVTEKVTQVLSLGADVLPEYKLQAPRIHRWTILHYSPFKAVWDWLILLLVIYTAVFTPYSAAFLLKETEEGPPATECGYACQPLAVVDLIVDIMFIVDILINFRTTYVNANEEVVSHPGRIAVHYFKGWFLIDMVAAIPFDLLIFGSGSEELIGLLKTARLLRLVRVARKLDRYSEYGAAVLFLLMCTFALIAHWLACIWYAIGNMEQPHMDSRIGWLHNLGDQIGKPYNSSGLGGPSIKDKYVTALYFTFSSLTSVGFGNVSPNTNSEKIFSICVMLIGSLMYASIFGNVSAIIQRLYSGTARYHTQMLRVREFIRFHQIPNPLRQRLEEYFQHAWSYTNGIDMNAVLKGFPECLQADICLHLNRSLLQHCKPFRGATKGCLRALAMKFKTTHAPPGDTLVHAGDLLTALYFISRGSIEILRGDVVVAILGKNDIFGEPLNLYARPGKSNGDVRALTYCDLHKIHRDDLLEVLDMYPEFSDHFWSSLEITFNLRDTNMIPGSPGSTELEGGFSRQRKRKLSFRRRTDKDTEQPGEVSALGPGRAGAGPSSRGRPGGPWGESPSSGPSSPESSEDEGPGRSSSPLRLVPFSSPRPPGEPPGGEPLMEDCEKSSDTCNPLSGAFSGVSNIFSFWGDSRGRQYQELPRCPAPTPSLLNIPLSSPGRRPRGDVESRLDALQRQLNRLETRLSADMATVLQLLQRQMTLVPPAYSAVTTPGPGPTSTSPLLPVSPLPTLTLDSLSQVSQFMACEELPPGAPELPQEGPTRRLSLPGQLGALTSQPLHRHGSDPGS
row,Structure (SMILES),"hERG current change (%, negative = inhibition) at 10uM [%]"
1,C=CCNC(=O)CN(c1ccc(OC)cc1OC)S(C)(=O)=O,14.5
2,Cc1cc(=O)n2nc(N3CCC(C(=O)NCc4ccc(Cl)cc4)CC3)sc2n1,-70
3,O=C1CSC2(CCCCC2)N1CCO,4.78
4,Cc1cc(C)c2c(N)c(C(=O)NC3CC3)sc2n1,8.51
5,Fc1ccc(NC(=S)NC2CCN(Cc3ccccc3)CC2)cc1,-30
6,O=C(/C=C/c1ccccc1[N+](=O)[O-])NCCN1C(=O)S/C(=C\c2ccc(F)cc2)C1=O,17
7,c1ccc2cc3[nH]c(CN4CCOCC4)nc3cc2c1,-2.11
8,Cc1cccc(C(=O)OCC(=O)N(C)c2ccccc2)c1C,6.74
9,CCC(=O)NCCc1nc2ccccc2n1CC,1.33
10,O=C(COc1ccc(Cl)cc1)N1CCN(S(=O)(=O)c2ccccc2)CC1,-54.6
11,COc1ccc(C(=O)NNC(=O)CSc2nnc(C)n2CC2CCCO2)cc1 (stereo not drawn),18.2
12,O=C(OCCNC(=O)c1ccc2ccccc2n1)c1ccc(F)cc1,-6.68
13,O=C(CN(Cc1ccc(Cl)cc1)S(=O)(=O)c1ccccc1)NCC1CCCO1 (stereo not drawn),-23.9
14,O=C(Oc1ccnc2cc(Cl)ccc12)N1CCOCC1,-1.74
15,NC(=O)Cc1nc2scc(-c3ccc(Cl)cc3)c2c(=O)[nH]1,2.14
16,CC(C)Cn1c(N)c(C(=O)COC(=O)Cc2cccc(C(F)(F)F)c2)c(=O)n(C)c1=O,-54.5
17,CC(C)OCCCNC(=O)C1CCC(=O)N1C(C)C (stereo not drawn),-10.3
18,COC(=O)[C@@H]1C[C@@]2(O)[C@H](O)[C@H](O)[C@H](O)C[C@H]2N1Cc1ccc(C(C)(C)C)cc1,11.1
19,COc1ccccc1OCc1ccc(C(=O)N2CCN(C)CC2)o1,-15.2
20,NCCCC[C@H]1CNC(=S)N1CC1CCCCC1,20.6
21,CCOc1nc(C)cc(COC)c1C(N)=O,1.32
22,Cc1[nH]c(=S)c(C#N)c(C)c1CC(=O)c1ccc(Br)cc1,10.7
23,C=CCN(CC=C)CCOc1ccc2ccccc2c1.O=C(O)C(=O)O,-28

row,Structure (SMILES),"hERG current change (%, negative = inhibition) at 10uM [%]"
1,CCCn1nnc(NC(=S)NC(=O)c2cccs2)n1,0.0611
2,COc1cc(/C=N/NC(=O)C(Cc2c[nH]c3ccccc23)NC(=O)OCc2ccccc2)cc([N+](=O)[O-])c1O (stereo not drawn),-0.112
3,COc1ccc(N2C(=O)[C@@H]3C(c4cccnc4)=NO[C@@H]3C2=O)cc1,10.8
4,N=c1oc2ccc3ccccc3c2cc1-c1nc(-c2ccccc2)cs1,1.27
5,O=CN1CCN(C(=O)c2cc3cc(Cl)ccc3[nH]2)CC1,-12
6,CS(=O)(=O)N(CC(=O)NC1CCCC1)c1cccc(F)c1,-12
7,COc1cccc(-n2nnc3c(=O)n(CC(=O)Nc4cc(C)on4)cnc32)c1,28.7
8,CSc1cccc(NC(=S)N(CCC(C)C)C2CCN(C(C)=O)CC2)c1,-23.3
9,O=C(CN(Cc1ccccc1)S(=O)(=O)c1ccc(F)cc1)NCc1cccnc1,-57.8
10,COc1ccc(-c2ncn(CCC#N)c2[N+](=O)[O-])cc1,0.491
11,CC1=CS/C(=C(/C#N)C(=O)N2CCOCC2)N1c1ccccc1,9.62
12,CC(C)(C)c1ccc(OCC(=O)NNC(=O)C2CCCO2)cc1 (stereo not drawn),10.3
13,O=C(NCc1ccco1)c1ccc2nccnc2c1,-25.5
14,Cc1ccc(S(=O)(=O)Nc2cccc(C(=O)N3CCN(c4ccccc4O)CC3)c2)cc1F,-31.4
15,Cc1ccnc(SCCn2c(N(C)Cc3ccccc3)nc3c2c(=O)n(C)c(=O)n3C)n1,-32.5
16,Cc1cc(=O)n2nc(N3CCCC(C(=O)NCc4cccc(Cl)c4)C3)sc2n1 (stereo not drawn),-46
17,C=CCN(c1ccccc1)S(=O)(=O)c1cccc(C(=O)OCC(=O)NCCOC)c1,-15.8
18,CCSc1nc2c(c(=O)[nH]c(=O)n2C)n1CC(O)COc1ccccc1C (stereo not drawn),-20.8
19,O=C(NCC12CC3CC(CC(C3)C1)C2)c1cc2n(n1)C(C(F)(F)F)CC(c1ccco1)N2 (stereo not drawn),-5.88
20,Clc1ccc(-c2nc(C3CCCCC3)no2)cc1,10
21,COc1ccc(C(=O)CN2C(=O)NC3(CCCc4ccccc43)C2=O)c(OC)c1 (stereo not drawn),23.7
22,N/C(=N\OC(=O)Cc1ccccc1)c1ccc([N+](=O)[O-])cc1,7.87
